Laboratory results: the supplement of paper PMC11417369
The other results are listed elsewhere or left out.

Each sequence was assayed on PfSIP2 AP2 domain 1 (GST-tagged) (assay: gcPBM binding intensity (ln(normalized median fluorescence intensity)); higher = stronger DNA binding).
Outline: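 Plasmodium falciparum DNA-binding domains carrying a GST tag were expressed in E. coli and applied for 1 h, at about 25 μg on average, to an Agilent 4 × 180k array. The array held primer-extended double-stranded 36-bp intergenic genomic probes together with negative controls, and binding took place in 1× PBS with 1% milk, 0.2 mg/ml BSA, 0.5% salmon testes DNA and 0.03% Triton X-100. An Alexa488 anti-GST antibody detected bound protein, and the array was scanned at 488 nm. Binding intensity is taken as the highest Masliner-normalised natural-log median intensity across replicate spots of either probe orientation.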

Sequence	gcPBM binding intensity (ln)
AAAATAAAATCATAAAGTACAAAAAGAAAATAAAAA [XGTACX_site7376]	6.99
TTTAATTTTTATATAACACACATATTGTAATTATGT [CACACA_site4566]	6.97
ATGTTTAATTAAATATGTACTTATTATATTATATGT [XGTACX_site8137]	7.23
AGGAATCTACATATATGTACATATATTGATATATTT [XGTACX_site137]	6.88
TCAATAAATATACATACATGCATACATACATACATA [TGCATGCA_site197]	7.07
TGTGTTAATATGAATTTAAACATAAATAAATAAATA [CACACA_negctrl_site1589]	6.69
AATTTTCAATAGTATACACACAATTATATATATATA [CACACA_site1116]	9.37
TCTTTTCTCGGAAGGGTGCAAGGAATTAATGAAATA [GTGCAC_site9706]	11.1
ATAAAAACTACATTCACACAAAAAAAAATCTACAAA [CACACA_site6109]	6.87
AATAATATTAATAAAAGTACATGTGTAATATATATA [XGTACX_site5922]	7.65
ATAAAGATAATATATGCACACATATAAATATATAAA [CACACA_site9153]	7.18
ATATATATATGTTAGGTGCATATATATTTTGTGGAT [GTGCAC_site9964]	9.6
ATATATATAATATATTGTACATATAATATATATATA [XGTACX_site4792]	8.72
ACATCTAGGCTTATTTTATGATACATGTGAATATAT [TGCATGCA_negctrl_site325]	6.97
GTTTTTGAGTAGTACACACACAATAAGGATGGATTC [CACACA_site3192]	7.16
ATAATTTCTATTTCACAAAAAAAAAAAAAAAAAAAA [CACACA_negctrl_site1012]	6.95
ACTAAAAGGCTTAAATGTACATATTATATATATATA [XGTACX_site5897]	9.22
ACATAACTTATATATACACACAATACAAATATATAT [CACACA_site2774]	7.27
GAATAATTAAAAGGTAGTACAAAGGTTATCAAAAGG [XGTACX_site8496]	7.3

Sequence	gcPBM binding intensity (ln)
GATATGATTATGTGATGGTGTTTTTGATAGATATTT [CACACA_negctrl_site1445]	6.77
TTGTTCTTTTGAAAGGTGCAAAAGAAAAATAATTAA	11.2
AGAAAACCGAAAGAGACACACAACATGTCGATTTAG [CACACA_site3764]	6.62
AGTTTTATGTAGTGTTGTACTTTATACAAATATATA [XGTACX_site990]	7.16
TACAAAAATGTAGTCACACATATGTATACTTTTATG [CACACA_site5607]	6.8
AGTAATAATATAATTTGTACATATATATATTATAAA [XGTACX_site7138]	7.09
TTTCTAATTTATATCACACACATATATAAATAGTAA [CACACA_site6156]	6.93
ATATATATAATTTAAAGTACATATTTAAGAATGAAA [XGTACX_site2238]	7.28
TGAAAAGATAAAAAATGTACATATATATTATATATA [XGTACX_site5678]	7.19
TTTCTAAATAATATACACAAAAAAATAAAACACTAA [TGCATGCA_negctrl_site43]	7.21
ATACACAATTATTTTCCTATTATGCAAGCAAATTTA [CACACA_negctrl_site1176]	7.22
GTTTAACTGTTTTATACACACAATGTAGACAATAAA [CACACA_site8967]	7.13
CACTGTAAATAGAAAGTGCAAAAATTGTAAATAAAA [GTGCAC_site9980]	8.62
GTACAAAAAAAGTGTACACAAAGTAAGACTTTAATT [CACACA_site5068]	7.96
ACTTGATTACACAACCACAAGTAATTGAAATTATTT [XGTACX_negctrl_site297]	7.47
TAAATACATTGACACACACACAAATATGTACATACA [CACACA_site7371]	7.16
TTATATGTTTCTTCACGTACGTATAAAAATGAACTT [XGTACX_site1764]	7.3
TATTTTTATAAAAACTGTACATAATAAATAAAAATA [XGTACX_site4743]	7.28
AATCAAAGTAATTTAACACACAATTTTAATACTGTT [CACACA_site7169]	6.83

Sequence	gcPBM binding intensity (ln)
TATCATGTGCGTGCGTGTACTTAACACACATAATAT [XGTACX_site2404]	7.13
TTGTTCATTATGCACAGTACATAAAAAGTAAAAAAA [XGTACX_site2403]	7.46
ATATTGACAAATATTACACACATATATATATATATA [CACACA_site4079]	9.15
TCATTTATTTTAAGGTGTACCGTTTAAAATCACAAA [XGTACX_site3243]	6.98
TTTTTTTGCGCGGGAAGAATAAAATTTATAGAATAT [TGCATGCA_negctrl_site306]	7.2
AATTTACACGTACGTGTACACACAAAAATATGTTTT [CACACA_site8242]	7.44
CAGACATTAATAAGTAGTACACAATAATTGACTAGG [XGTACX_site854]	7
AATGTTTAATATAACGCATGCCTTAATATAGAATGC [TGCATGCA_site463]	6.87
ATTTCTATAAAAATAATCTACATTTTTTTTTTTTTT [CACACA_negctrl_site917]	6.88
TAACCACAATTTTAATGTACATATATATTTATATAT [XGTACX_site8968]	7.14
TATATACATATATATATATGTATAGATAGATACATT [CACACA_negctrl_site1511]	7.31
TTTTGAAAAAATTTTTATAAAAGAATAAAATTATTA [XGTACX_negctrl_site570]	6.86
AATATTTTACAATACACATGCAAATAATATTCTAAA [TGCATGCA_site618]	6.69
TAAAAATGGAAACACACACACATAAATATATTTTAT [CACACA_site2513]	6.97
TCTCATTTTCCCTAAAAAAAAAAATAAATAAAAATA [TGCATGCA_negctrl_site580]	6.89
TTTTTCCATATTGTAGCATGCAGTATATATATCATG [TGCATGCA_site530]	7
ATATTATTTATGTATGCATGCGGCGAAATGGGCTTG [TGCATGCA_site28]	7.19
AATGGGTTACACATATGTACATAAAATATAAAAAAT [XGTACX_site3440]	7.08
